Data as given in PMC4336329 (PLoS ONE, 2015).
The campaign covered roughly 310,000 compounds. About 2,200 (0.71%) showed an effect of 50% or more. The effect is printed as a negative number. The list shows a part of the results.

molecular target: human ether-à-go-go-related gene (hERG) potassium channel (human, UniProt Q12809); assay: primary screen, population patch clamp on CHO cells stably expressing hERG
Sequence (Q12809 whole entry, looked up): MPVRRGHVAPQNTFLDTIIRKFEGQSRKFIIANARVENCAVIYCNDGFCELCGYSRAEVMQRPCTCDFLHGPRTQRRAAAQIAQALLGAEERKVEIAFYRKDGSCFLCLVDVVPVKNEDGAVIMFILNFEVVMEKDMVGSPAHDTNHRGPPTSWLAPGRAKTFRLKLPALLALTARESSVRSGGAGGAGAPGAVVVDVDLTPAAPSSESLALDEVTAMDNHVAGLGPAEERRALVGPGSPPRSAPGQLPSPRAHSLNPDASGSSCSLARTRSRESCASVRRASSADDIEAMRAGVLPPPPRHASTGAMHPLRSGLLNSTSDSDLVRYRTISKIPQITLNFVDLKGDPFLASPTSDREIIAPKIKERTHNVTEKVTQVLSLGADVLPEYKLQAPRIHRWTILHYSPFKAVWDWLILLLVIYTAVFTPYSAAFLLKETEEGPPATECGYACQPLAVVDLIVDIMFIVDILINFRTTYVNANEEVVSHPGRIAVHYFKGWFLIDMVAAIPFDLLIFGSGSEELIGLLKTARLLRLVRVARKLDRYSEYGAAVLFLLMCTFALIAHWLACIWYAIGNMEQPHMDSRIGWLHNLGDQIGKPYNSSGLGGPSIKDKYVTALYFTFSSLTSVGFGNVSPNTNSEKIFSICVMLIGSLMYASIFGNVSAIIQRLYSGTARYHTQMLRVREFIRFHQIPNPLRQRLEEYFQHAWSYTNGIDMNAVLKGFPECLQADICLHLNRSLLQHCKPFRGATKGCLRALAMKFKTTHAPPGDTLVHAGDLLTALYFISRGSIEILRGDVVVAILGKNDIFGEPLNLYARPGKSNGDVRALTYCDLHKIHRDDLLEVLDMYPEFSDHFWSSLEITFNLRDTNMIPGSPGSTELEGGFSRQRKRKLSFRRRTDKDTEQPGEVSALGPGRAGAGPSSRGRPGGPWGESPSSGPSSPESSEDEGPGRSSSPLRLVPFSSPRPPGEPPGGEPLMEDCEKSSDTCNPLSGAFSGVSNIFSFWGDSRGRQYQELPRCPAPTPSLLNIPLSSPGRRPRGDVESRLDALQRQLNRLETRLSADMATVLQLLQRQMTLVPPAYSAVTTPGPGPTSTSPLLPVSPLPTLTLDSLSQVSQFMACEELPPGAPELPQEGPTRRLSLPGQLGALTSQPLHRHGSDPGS

SMILES | hERG current change (%, negative = inhibition) at 1uM [%]
Clc1cccc(Nc2nc(-c3cccnc3)cs2)c1 | 7.97
CC(=O)NC1(C(F)(F)F)C(=O)Nc2c1c(=O)[nH]c(=O)n2Cc1ccco1 (stereo not drawn) | 11.4
CCOc1ccc(NC(=O)CCS(=O)(=O)c2ccc(C)cc2)cc1 | 2.45
CCc1c(C)c2c(C)nn(-c3ccccc3)c2oc1=O | 12
c1ccc(N(c2ccccc2)c2nc(-n3ccnc3)nc(-n3ccnc3)n2)cc1 | -2.04
CN(C)C=O.COc1cc(/C=C/c2nc3ccccc3c(=O)n2-c2ccc(O)cc2)ccc1O | 19.3
COc1ccccc1-c1n[nH]c(=S)o1 | 16.7
O=C(CCNC(=O)c1ccccc1Cl)Nc1cc(C(F)(F)F)ccc1Cl | 15.2
Cc1cccc(N(C(=O)Nc2ccccc2)C2=NCC(C)S2)c1 (stereo not drawn) | 5.09
CCCCCCC(=O)Nc1nc(C)c(-c2csc(Nc3cccc(OC)c3)n2)s1 | 15.9
Cc1cccc(/C=N/n2c(-c3ccccc3)n[nH]c2=S)c1O | 9.2
CN(C(=O)c1cccc(Nc2ccc(-c3ccc4c(c3)OCCO4)nn2)c1)C1CCCCC1 | 5.84
COc1cccc(C(=O)N2CCN(Cc3ccccc3C(F)(F)F)CC2)c1.O=C(O)C(=O)O | 3.08
COCCNc1nc2c(c(=O)n(Cc3ccccc3F)c(=O)n2C)n1C | 2.52
CC(=O)Cn1c(=O)oc2ccccc21 | 9.03
Brc1cccc(-c2n[nH]c(-c3ccccc3)n2)c1 | -2.61
COc1cc(C(=O)NCc2cc3cc(Cl)ccc3n2C)cc(OC)c1OC | 18.9
COc1ccc(NS(=O)(=O)c2ccc(NC(=O)c3ccc(CN4CCOCC4)cc3)cc2)cc1 | 13.9
Cc1ccccc1NC(=O)COC(=O)c1c[nH]c(=O)[nH]c1=O | 17.8

SMILES | hERG current change (%, negative = inhibition) at 1uM [%]
COc1ccc2cc(C(=O)NCc3ccco3)c(=Nc3ccc(C(=O)O)cc3)oc2c1 | 11.7
CCOC(=O)Cn1cc(C(=O)OC)c2ccccc21 | 18.7
O=C(COC(=O)c1ccc(Br)o1)c1ccc(S(=O)(=O)N2CCCCC2)cc1 | 11.2
CN(C(=O)Oc1cccc2cccnc12)c1ccccc1 | 13.4
Cc1oc2cc(O)ccc2c(=O)c1Oc1ccccc1Br | 20.6
CCc1[nH]nc2c1C(C1C=CCCC1)C(C#N)=C(N)O2 (stereo not drawn) | 10.1
Cc1cc[n+](C(C)C(=O)c2ccc(-c3ccccc3)cc2)cc1.[Br-] (stereo not drawn) | 14.1
COc1cc(NS(=O)(=O)c2ccc(OC)c(C)c2C)c(OC)cc1Cl | 18.5
C=CCN(C(=O)CCC(=O)Nc1cc(C)on1)C(C(=O)NC1CCCC1)c1ccc(C)cc1 (stereo not drawn) | 12.9
COC(CN(C(=O)CCl)C(C(=O)NC1CCCC(C)C1C)c1ccc(C)cc1)OC (stereo not drawn) | 9.46
O=C1CC(N2C(=O)/C(=C/C=C/c3ccccc3)SC2=S)C(=O)N1c1ccccc1 (stereo not drawn) | 7.82
Cn1c(Nc2ccc(Cl)cc2)cc(=O)n(C)c1=O | 21.3
CCC1C(=O)N(c2nc(C)cc(C)n2)N=C1C (stereo not drawn) | 6.09
CCOC(=O)C1=C(N)Oc2c(oc(CO)cc2=O)C1c1ccc(Cl)cc1 (stereo not drawn) | 5.48
CC(CCc1ccccc1)NC(=O)CCc1cn(C)c2ccccc12 (stereo not drawn) | 21
Cc1ccc(OCC(=O)NCCNC(=O)c2ccccn2)cc1 | 16.4
COc1ccc(S(=O)(=O)N2CCCCC2)cc1NC(=O)COc1ccccc1 | 13.7
Cc1ccc(S(=O)(=O)N2CCN(C(=O)CCCOc3ccc(Cl)cc3C)CC2)cc1 | 0.647
CCOC(=O)NC(=S)Nc1ccc(C(C)(C)C)cc1 | 9.52

SMILES | hERG current change (%, negative = inhibition) at 1uM [%]
Cc1ccc2[nH]c3c(c2c1)CCCC3C(N)=O (stereo not drawn) | 7.6
O=C(N/N=C1/CC2C=CCC12)c1ccc(Br)o1 (stereo not drawn) | 14.8
COc1ccccc1NC(=O)c1ccc(NS(=O)(=O)c2cccc3cccnc23)cc1 | 11.7
Cl.O=C(O)C(c1ccccc1)N1CCCCC1 (stereo not drawn) | 15.4
COc1cccc(-c2ccc(NC(=O)C3CCCN(Cc4nccn4C)C3)cc2)c1 (stereo not drawn) | -6.7
O=C(NN1C(=O)C2CCCCC2C1=O)c1ccco1 (stereo not drawn) | 8.35
Cc1nn(C(=O)CNC(=O)c2ccccc2)c(C)c1C | 12.5
Cc1ccc(Nc2c([N+](=O)[O-])ccc3nonc23)cc1C | 15.3
O=C(C/C=N\OCc1ccc([N+](=O)[O-])cc1)Nc1ccccc1 | -10.3
Cc1cc(C)nc(SCC(=O)N2CCC(C(N)=O)CC2)n1 | 10.4
Cc1ccc(C2=NN(C(=O)CCC(=O)O)C(c3cccs3)C2)cc1 (stereo not drawn) | 18.7
Cc1cccc(Nc2ncnc3onc(-c4cccc(Cl)c4)c23)c1 | 5.3
CCN(C(=O)CCNC(=O)Cn1cnc2ccccc2c1=O)c1cccc(Cl)c1 | 8.59
CCOc1ccc(-n2ccc(=O)c(C(=O)Nc3ccc(S(=O)(=O)Nc4nccs4)cc3)n2)cc1 | 27
NS(=O)(=O)c1ccc(NC(=O)CN2C(=O)c3ccccc3C2=O)cc1 | 0.122
C=CCNC(=O)C1(c2ccccc2)CC1(Cl)Cl (stereo not drawn) | 9.14
O=C(Nc1nc(-c2cccs2)cs1)c1ccc(Cl)s1 | -6.43
COc1ccc(N(CC(=O)NCCSCc2ccccc2C)S(=O)(=O)c2ccccc2)cc1 | 8.83
CCOC(=O)c1cnn(-c2cc(C(C)(C)C)nc3c(-c4ccccc4)c(C)nn23)c1N | 1.04
